Legend:
[1] = molecular target: T1, human IL-17RC extracellular domain (human, UniProt Q8NAC3-2 21-467); assay: SPR; Biacore 8K; IL-17RC ECD amine-coupled on a CM4 chip (about 500 RU); cytokines as analytes in PBS pH 7.4, 3 mM EDTA, 0.05% Tween20; 20 °C, 30 µl/min; 1:1 Langmuir model or steady-state analysis; settings: both partners purified
T1 construct: human IL-17RC, full-length extracellular domain, residues 21-467 of UniProt Q8NAC3-2, cloned behind the CD33 signal peptide; numbers count on: isoform Q8NAC3-2; also called IL-17RC ECD; IL-17RC receptor
T1 sequence (looked up): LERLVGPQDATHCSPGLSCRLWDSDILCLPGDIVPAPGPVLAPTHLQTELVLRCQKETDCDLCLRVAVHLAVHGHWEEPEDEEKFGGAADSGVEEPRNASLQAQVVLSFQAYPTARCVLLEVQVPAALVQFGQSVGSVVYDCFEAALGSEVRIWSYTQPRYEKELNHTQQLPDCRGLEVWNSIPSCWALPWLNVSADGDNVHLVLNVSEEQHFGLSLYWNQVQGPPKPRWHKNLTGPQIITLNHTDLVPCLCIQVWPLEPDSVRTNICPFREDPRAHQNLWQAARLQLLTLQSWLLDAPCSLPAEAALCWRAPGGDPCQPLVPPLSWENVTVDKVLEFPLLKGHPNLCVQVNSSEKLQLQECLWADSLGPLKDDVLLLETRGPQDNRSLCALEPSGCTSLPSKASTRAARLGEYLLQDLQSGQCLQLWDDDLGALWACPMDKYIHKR

[2] = molecular target: T2, human IL-17RA extracellular domain (human, UniProt Q96F46 33-320, biotin on the Avi-tag (E. coli BirA), for the SPR measurements only); assay: SPR; Biacore 8K; biotinylated IL-17RA ECD immobilised on a streptavidin chip (about 500 RU); cytokines as analytes in PBS pH 7.4, 3 mM EDTA, 0.05% Tween20; 20 °C, 30 µl/min; 1:1 Langmuir model or steady-state analysis; settings: both partners purified
T2 construct: human IL-17RA, full-length extracellular domain, residues 33-320 of UniProt Q96F46, cloned behind the CD33 signal peptide; The same construct was used unbiotinylated for the complex and its crystals (treated with PNGaseF and Endoglycosidase H) and biotinylated for SPR; also called IL-17RA ECD; IL-17RA receptor; source: GnTI-deficient HEK293S, transient expression, secreted, purified (anti-APP …)

B1: human IL-17A homodimer, Arg69 to alanine mutant (ligand)
chain: not shown
notes: signal peptide in the construct; human IL-17A, […] of […] with the native signal peptide, R69A; also called IL-17A R69A; point mutant of the IL-17A homodimer; source: HEK293S, transient expression, secreted, purified
[1]
  fold reduction in binding affinity against wild-type IL-17A: ≥ 200 fold
[2]
  fold drop in binding affinity against wild-type IL-17A: ~400 fold

— PMC5566378, “The human IL-17A/F heterodimer: a two-faced cytokine with unique receptor recognition properties” (Scientific Reports, 2017)
